B1: PDZ domain of human HtrA1 (domain or fragment)
chain: not shown
B2: HtrA1* (catalytically inactive human HtrA1 without the N-terminal domain, S328A) (domain or fragment)
chain: not shown

Key:
[1] = target: T1, α-Syn fibrils (from N-terminally acetylated human α-Syn) (human, UniProt P37840, N-terminal acetylation); test: co-sedimentation
[2] = target: T1, α-Syn fibrils (from N-terminally …); test: air AFM imaging

Binder | binding result [1] | binding result [2]
B1 | binds | –
B2 | – | binds
